In PubChem BioAssay AID1963576 (National Center for Advancing Translational Sciences (NCATS), 2024):
The campaign covered roughly 46,000 compounds. About 60 (0.1%) were called active. About 3% were inconclusive and are not listed. The call rests on the fitted dose curve; in most records, active means well fitted inhibition curve with a large enough effect; inconclusive means small, poorly fitted or top-dose-only effect; inactive means no such curve, though single readings can be large or run the other way. The list shows a part of the results.

Assay: Primary qHTS assay for Inhibitors of ovarian cancer metastasis using an organotypic tumor microenvironment (TME) model. Further: nearly all actives have a fitted effect of over 65% in size.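 On activity change, negative = inhibition: plate controls were DMSO wells for no effect and tomatine positive control wells for full effect.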
Conditions: SKOV3ip1-GFP adhesion/invasion on 3D omental model, fluorescence; series mostly up to 45.8 µM; activity change, negative = inhibition: at the top concentration
How it was run: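 Primary human omental fibroblast/mesothelial 3D culture pre-formed 48 h. SKOV3ip1-GFP cells added with compounds (0.36-46 umol/L), incubated 2 h RT/16 h 37 C, fixed; GFP cells quantified at 488/509 nm.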

Activity change, negative = inhibition, inactive:
Cc1cc(C)cc(-n2ccnc2SCC(=O)Nc2ccc(C)c(Cl)c2)c1 -9.44%
Cc1ccc2oc(=O)c3cc(C(=O)Nc4cccc(C#N)c4)sc3c2c1 -12%
CC(C)c1ccc(S(=O)(=O)c2cnc(SCC(=O)Nc3ccc(F)cc3F)nc2N)cc1 -6.71%
Cc1ccc(-n2nc3c(N4CCC(C(=O)NCCC(C)C)CC4)nnc(C)c3c2C)cc1 5.82%
COc1ccc2c(c1)sc1ncc(C(=O)NCc3cccc(Cl)c3)c(=O)n12 13.9%
COc1cc(C)ccc1OCCn1c(-c2ccc(Cl)cc2)nc2ccccc2c1=O -14.3%
O=C(CC1N=C2c3ccccc3N=C(SCc3ccccc3F)N2C1=O)NCc1ccc2c(c1)OCO2 (stereo not given) -4.16%
CCOc1ccc(C(c2c(O)cc(C)n(CCOC)c2=O)N2CCC(C)CC2)cc1 (stereo not given) -2.37%
O=C(NCc1ccc(Cl)cc1)c1cnc2sc(N3CCCC3)nn2c1=O -3.29%
COc1ccc(C2c3c(n(C)c4ccccc34)C(=O)N2CC(=O)Nc2ccccc2F)cc1 (stereo not given) -0.41%
COc1ccc(CCNC(=O)c2ccc3c(c2)N(Cc2cccc(Cl)c2)C(=O)CS3)cc1OC -13.5%
Cc1ccc2scc(N3CCN(c4ccc(F)cc4)CC3)c(=O)c2c1 -5.72%
O=C1c2[nH]nc(-c3ccc(Br)cc3)c2C(c2cccc(O)c2)N1c1ccc(Cl)cc1 (stereo not given) -7.04%
COc1ccc(NC(=O)c2sc3nc4n(c(=O)c3c2C)CCC4)cc1Cl -7.19%
COc1ccc(-n2c3c(cc(-c4nc(-c5ccc(Cl)cc5)cs4)c2=O)C(=O)CC(C)(C)C3)cc1 -4.78%
O=C(Cc1ccc(NC(=O)N2CCSc3ncccc32)cc1)NCCc1ccccc1 -4.34%
CCc1ccc(CNC(=O)c2cc(-c3ccc(Cl)s3)nc3ccccc23)cc1 -8.37%
CCOc1ccc(NC(=O)Cn2c(=O)oc3cc(S(=O)(=O)N4CCCCCC4)ccc32)cc1 -2.83%
Cc1ccc(CCNC(=O)c2ccc(CSCc3ccccc3Cl)o2)cc1 31.9%
CCOc1ccc(CNC(=O)c2ccc3c(c2)c(C)c(C)n3Cc2ccc(Cl)cc2)cc1 -4.15%
CCNc1ccc(-c2nc(-c3ccco3)no2)cc1[N+](=O)[O-] -8.85%
CCOC(=O)N1CCc2c(sc3c2c(=O)n(-c2ccc(CC)cc2)c(=O)n3CC(=O)Nc2ccc(C)cc2)C1 -3.01%
Cc1ccc2oc(=O)n(CCCOc3ccc(Cl)cc3)c2c1 -6.91%
Cc1cc(C)c(NC(=O)c2cc(S(=O)(=O)N3CCN(c4ccccc4F)CC3)ccc2F)c(C)c1 0.247%
COc1cc(OC)c(Nc2nc3ccccc3nc2-n2nc(C)cc2C)cc1Cl 0.42%
CCOC(=O)c1ccccc1NC(=O)N1CCC(N2CCN(Cc3ccccc3)C(=O)C2=O)CC1 -0.714%
C[C@H]1[C@H](O)O[C@@H]2O[C@@]3(C)CC[C@@H]4[C@H](C)CC[C@@H]1[C@@]24OO3 -18.1%
Cc1ccc(-c2nc3nc(C)cc(Nc4ccccc4O)n3n2)cc1 8.01%
CCCC1=Nc2cc(C(=O)NCCc3ccc(OC)cc3OC)ccc2Sc2ccccc21 14.9%
CSc1ncc(C(=O)Nc2ccc(F)cc2F)c(-c2ccccc2)n1 0.789%
Cc1ccc2oc(-c3cc(NC(=O)c4ccco4)ccc3Cl)nc2c1 -9.16%
Cc1ccc(NC(=O)CN2C(=O)CCn3nc(-c4cccn4C)cc32)cc1 9.54%
COCCCNc1nc2c(S(=O)(=O)c3ccc(C)c(C)c3)nnn2c2ccc(Cl)cc12 -19.6%
CCOc1ccc(OCC)c(NC(=O)CCC(=O)N2CCOc3ccccc32)c1 7.59%
CNC(=O)COc1ccc(NC(=O)CCn2nc(-c3ccc(C)cc3)c3ccccc3c2=O)cc1 -2.98%
O=C(Nc1nc2nc(-c3ccccc3)cc(=O)n2[nH]1)c1ccc(Cl)cc1 5.98%
CCC(C)OC(=O)/C(C#N)=C\c1ccc(-c2ccccc2Cl)o1 (stereo not given) -6.59%
COc1ccc(-n2nc(C(=O)N3CCN(c4cccc(C)c4C)CC3)c3c4ccccc4n(C)c3c2=O)cc1 -10.5%
Cc1cn(C)c(CC(=O)NCc2ccccc2Cl)c1C(=O)O 3.27%
CCC(=O)N1c2ccccc2CC1C(=O)NCCc1ccc(C)cc1 (stereo not given) 2.8%
CCN(CC)CCNC(=O)c1nn(C)c2c1CS(=O)(=O)c1ccccc1-2 16.9%
Cc1ccc(CNC(=O)c2nn(C)c3c2CS(=O)(=O)c2ccccc2-3)cc1 1.43%
CC1=C(c2ccc(C(C)C)cc2)S(=O)(=O)NC1=NCc1ccccc1Br -3.48%
O=C(c1ccc(CSc2nc3ccncc3n2Cc2cccc(F)c2)cc1)N1CCCCC1 8.91%
CCOc1ccc(N(CC(=O)NCc2ccc(C)cc2)S(=O)(=O)c2c(C)noc2C)cc1 16.3%
CCOc1ccc(CCNC(=O)Cn2ncc3c(=O)oc4ccc(C)cc4c32)cc1 -3.61%
CCOC(=O)c1c(C)[nH]c(C)c1S(=O)(=O)N1CCC(C(=O)Nc2ccc(C)cn2)CC1 67.2%
CCOc1cc2[nH]c(=O)n(CCCC(=O)N3CCN(c4ccc(OC)cc4)CC3)c(=O)c2cc1OCC 2.21%
COc1cc(NC(=O)CN2C(=O)CN(C)C(=O)c3ccccc32)cc(OC)c1OC 6.21%
CCCCCCCCCC(=O)N[C@@H](Cc1c[nH]c2ccccc12)C(=O)N[C@H](CC(N)=O)C(=O)N[C@@H](CC(=O)O)C(=O)N[C@@H]1C(=O)NCC(=O)N[C@@H](CCCN)C(=O)N[C@@H](CC(=O)O)C(=O)N[C@H](C)C(=O)N[C@@H](CC(=O)O)C(=O)NCC(=O)N[C@H](CO)C(=O)N[C@@H]([C@@H](C)CC(=O)O)C(=O)N[C@@H](CC(=O)c2ccccc2N)C(=O)O[C@@H]1C 4.02%
CNC(=O)C1CCC(Cn2c(=O)c3sccc3n(CC(=O)Nc3ccc(C)c(F)c3)c2=O)CC1 (stereo not given) 3.59%
CCCCN1CC(c2nc3ccccc3n2CCCCOc2ccc(C)c(C)c2)CC1=O (stereo not given) 0.319%
Cc1cccc(CNC(=O)Cn2ccc3cc(S(=O)(=O)N4CCCC4)ccc32)c1 -5.24%
O=C(NCCN1CCN(c2cccc(Cl)c2)CC1)C1COc2ccccc2C1 (stereo not given) 3.47%
O=C1c2[nH]nc(-c3ccccc3O)c2C(c2cccc(Cl)c2)N1Cc1cccnc1 (stereo not given) 1.9%
CC(=O)N1CCCc2cc(S(=O)(=O)N(C)CC(=O)Nc3cccc(C)c3C)ccc21 2.69%
Cc1cccc(NC(=O)CS(=O)(=O)c2nc(-c3ccccc3)cn2-c2cccc(Cl)c2)c1C 0.236%
CN(C)S(=O)(=O)c1ccc(C(=O)NC2CC(=O)N(c3ccc4c(c3)OCCO4)C2)cc1 (stereo not given) -13.5%
Cc1ccc(S(=O)(=O)N(CCc2ccccc2)CC(=O)Nc2cc(C)ccc2C)cc1 6.05%
CCOc1ccccc1NC(=O)c1nc2nc(C)cc(C(F)F)n2n1 0.54%
COc1cccc(N2CCN(C(=O)C3CCN(S(=O)(=O)c4c(C)noc4C)CC3)CC2)c1 13.2%
Cn1cc(C(=O)NCc2ccccc2)c(=O)c2cc(S(=O)(=O)N3CCOCC3)ccc21 0.425%
CCCN1CCN(CCCNC(=O)Cn2nc(CC)n3c(cc4occc43)c2=O)CC1 0.82%
Cc1ccc2c(=O)cc(C(=O)N(Cc3ccc(N(C)C)cc3)C3CCS(=O)(=O)C3)oc2c1 (stereo not given) -4.92%
CSc1ccc(CCNC(=O)CN2C(=O)c3cccnc3Oc3ccc(C)cc32)cc1 5.84%
COc1ccccc1CN1C(=O)CN(C2CCCCCC2)C(=O)C1c1ccc(C)cc1 (stereo not given) -11.1%
Cc1cc(F)ccc1NS(=O)(=O)c1c(C)nc2scc(C)n2c1=O -32.8%

outcome, inactive:
COc1ccc(Cl)cc1NC(=O)CN(c1cccc(C)c1C)S(=O)(=O)c1ccccc1
Cc1ccc(N(C)S(=O)(=O)c2nnc(NC(=O)C3CCCCC3)s2)cc1
Cc1ccccc1NC(=O)c1c(NC(=O)Cc2ccccc2)sc2c1CCC2
O=C(NCCOCCn1c(=O)oc2ccccc21)Nc1ccc(Cl)cc1
CN(C)S(=O)(=O)n1cc(/C=C(\NC(=O)c2ccccc2)C(=O)NCCCn2ccnc2)c2ccccc21
COc1ccc(N2CC(NC(=O)CCc3ccccc3)CC2=O)cc1OC (stereo not given)
COC(=O)c1scc(-c2ccc(C)cc2)c1S(=O)(=O)N1CCN(c2ccc(OC)cc2)CC1
O=C(Cn1c(=O)n(CC2CCCO2)c(=O)c2ccccc21)Nc1cccc(Cl)c1 (stereo not given)
CCS(=O)(=O)N1CCc2cc(C(=O)NCc3ccccc3)ccc21
COc1cc(OC)c(NS(=O)(=O)c2cc(-c3cnc(C)o3)ccc2OC)cc1Cl
O=C(CSCc1nc2cccnc2n1C1CCCCC1)NCc1cccc(Cl)c1
CCOC(=O)c1ccc(N2C(=O)c3n[nH]c(-c4ccco4)c3C2c2ccc(O)c(OC)c2)cc1 (stereo not given)
Cc1cccc(NC(=O)Cn2c(=O)nc(-c3ccccc3)c3ccccc32)c1C
CCOC(=O)c1c(C)oc2ccc(N(C(=O)c3ccncc3)S(=O)(=O)c3ccc(Br)cc3)cc12
COc1ccc(C)cc1NC(=O)C1CCCN(S(=O)(=O)c2ccc3[nH]c(=O)ccc3c2)C1 (stereo not given)
Cc1ccc(F)c(NC(=O)Nc2ccc3snnc3c2)c1
COc1ccc(OC)c(NS(=O)(=O)c2ccc3[nH]c4c(c3c2)CCCCC4)c1
CCOc1ccc(CCNC(=O)c2cn(CC)c3ccc(S(=O)(=O)N4CCCCCC4)cc3c2=O)cc1OCC
COc1cc(C2C(C(=O)Nc3ccc(C)cc3C)=C(C)Nc3nc4ccccc4n32)cc(OC)c1OC (stereo not given)
CCOC(=O)c1cc(-c2ccc(C)cc2)n(CCC(=O)Nc2ccc(C(C)C)cc2)c1C
O=C(NC1CC(=O)N(c2ccc(Cl)cc2)C1)c1ccc2c(c1)OCO2 (stereo not given)
Cc1cc(NC(=O)N(C)CCc2c(C)nn(C)c2C)ccc1Br
CC1(C)O[C@H]2[C@@H](O1)[C@@H](C(=O)Nc1ccc(F)c(F)c1)O[C@@H]1OC(C)(C)O[C@@H]12
